Laboratory results reported in the supplement of paper PMC11417369.
± gives the standard deviation of the averaged measurements. The list shows a part of the results.

test system: PfAP2-G AP2 domain (GST-tagged); assay: gcPBM binding intensity (ln(normalized median fluorescence intensity)); higher = stronger DNA binding
In short: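 Each value is the highest Masliner-normalised natural-log median intensity across replicate spots of either orientation of a probe. The probes were primer-extended double-stranded 36-bp intergenic genomic sequences on an Agilent 4 × 180k array, alongside negative controls, exposed for 1 h to GST-tagged P. falciparum DNA-binding domains expressed in E. coli. Bound protein was picked up with Alexa488 anti-GST antibody and scanned at 488 nm.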

Row | Sequence | gcPBM binding intensity (ln)
1 | TCTTAAAATATATAGGTGCAAAAAAAAAAAAAAAAA | 9.76 ± 0.57
2 | AAAGAAAGAAGACACACACACATATATAAATATCAA [CACACA_site7715] | 9.93 ± 0.11
3 | AATACAAGAACTGACACACATACATACTACATTTTA [CACACA_site2829] | 10.3 ± 0.2
4 | ATATTTATATATAGTAGTACTTTCAATAATTTAAAT [XGTACX_site7276] | 11.4 ± 0.84
5 | ATATAAATTTTTTATGAACACACAAATACAGACACT [CACACA_site8848] | 10.7 ± 0.47
6 | GTATATGAGAAAAAAAGTACATGCACAAAATGTATA [XGTACX_site6441] | 11.5 ± 0.79
7 | TGTTTTTATTTATTCTGTACTGAAGAGAGTTATATA [XGTACX_site8859] | 10.9 ± 0.61
8 | TTTAAATACAGACATACACACATACACCCACATATA [CACACA_site8078] | 10.5 ± 0.47
9 | TAAGAAATAAATAGTACACACATAGACACAGACACA [CACACA_site4934] | 11.4 ± 0.93
10 | AAAAAAAAAAGAATAGCACACACACCGATATAAATA [CACACA_site8111] | 9.96 ± 0.13
11 | TAGGTATGCTCTCAATGTACATAAAATAATTTTACT [XGTACX_site6556] | 11.1 ± 0.67
12 | ATAATTAAAAAAAATTGTACATATAAATAGAAGATT [XGTACX_site230] | 11.1 ± 0.53
13 | AGATTAAAATAATATAAACACACATATACTTTTTTC [CACACA_site8085] | 10.2 ± 0.25
14 | TCATTTTAAAAAAATAGTACTTTAAGAAACTTTTAT [XGTACX_site602] | 10.9 ± 0.56
15 | TTTTTTTTTTTTTTTTTTTATGTATACATATTTATA [TGCATGCA_negctrl_site234] | 9.77 ± 0.55
16 | AGCATTAATTATTTCACACATATATATATATATATA [CACACA_site4889] | 10.1 ± 0.28
17 | TAAATCCTTTACAACACACACACAAAAAAAAAAAAA [CACACA_site643] | 10 ± 0.61
18 | GATATTCTATAAAAAAGTACAAATATTTTAAAAAAT [XGTACX_site2177] | 11.3 ± 0.94
19 | AACAACAACTAATATGCACACATTTAAAAACAAAAT [CACACA_site2440] | 10.3 ± 0.36
20 | TATTTTTTTTTTTTTTTACACACTATAGGGAAAAAA [CACACA_site8583] | 10 ± 0.3
21 | ATTAAAATTTAAAATACACACACATATATATAATAT [CACACA_site8612] | 10.1
22 | TAAAATGTACAGGACGCACACACATATATATATATA [CACACA_site3673] | 11.2 ± 0.78
23 | TTTTTTTTTTTTCATTGTACTCTTAAAAATTCAACT [XGTACX_site3154] | 11.4 ± 1.2

Row | Sequence | gcPBM binding intensity (ln)
24 | TTATAATGAAATATATTCTTATTCTTTTTTTTTTTT [GTGCAC_negctrl_site384] | 9.47 ± 0.028
25 | GGAGACTTTGTATTGGGTACGTATTTCAATGCATGT [XGTACX_site1596] | 11.3 ± 0.85
26 | GCTTCTTAATATCATACACACATAGATATATTTATA [CACACA_site5676] | 9.925 ± 0.078
27 | ACGAATTAAATTTGCTGTACCAAAAAGAAAACAATA [XGTACX_site5511] | 10.9 ± 0.53
28 | CATACATACATACATACACACACATATATATATATA [CACACA_site8593] | 10.7 ± 0.49
29 | AAACCTTTACATCGTTTGCACTATATTGATATGTGT [GTGCAC_site9686] | 9.91 ± 0.11
30 | TTTTTTAACAAAAATAAAACATAACTGAATTAAAAG [GTGCAC_negctrl_site244] | 10 ± 0.11
31 | CTTCCTATATTTTACTGTACTTTTTTTTTTTTTTTT [XGTACX_site4016] | 11.7 ± 0.98
32 | ATATATAAGGAAAAAAGTACTTATATTTTTTTTTTG [XGTACX_site1909] | 11.1 ± 0.61
33 | TTTATGTGTATTAAGTGTACACATATAGTGTATTTT [XGTACX_site999] | 11.6 ± 1.1
34 | GAAAACATAAAAATATGTACTTAAAATATATTTTGT [XGTACX_site868] | 11.2 ± 0.85
35 | AAAACGAAACATCTGTGTATAAGTCTATATTATTAT [XGTACX_negctrl_site301] | 9.79 ± 0.12
36 | AACAAATGTTAAATGTTTAAGGAGAAAATAAAGACA [CACACA_negctrl_site1163] | 10 ± 0.11
37 | TGTCATGATACATACACACACATACCCATACCCATA [CACACA_site5211] | 10.5 ± 0.33
38 | AAATAAAGCATGTGCTGTACAAACGAAATATTTAAG [XGTACX_site3146] | 10.8 ± 0.12
39 | AACTAATTCATGTTATATTAGATAAAAAAAAAAAAA [TGCATGCA_negctrl_site340] | 9.76 ± 0.37
40 | ATCAATACTTTTTTGGGTACATAAATATATATATAT [XGTACX_site8436] | 11.4 ± 0.83
41 | ATATTTTTTAATTTTACACACCATATAAAATAATTC [CACACA_site7339] | 10.04 ± 0.078
42 | AAATATATTATATGTACACACAAAATTAAGGGATAT [CACACA_site1375] | 11.4 ± 0.79
43 | GTGTTTGAAAATAAAGCATGCAAATATATTTGAAAT [TGCATGCA_site386] | 9.82 ± 0.099
44 | ATAAGATTATACAATTGTACGTTGTTCAAGATAAGG [XGTACX_site191] | 11 ± 0.73
45 | TTTTTTTTGTTCATTGTGCACATTGCTTGCATGGAA [GTGCAC_site9693] | 10.5 ± 0.52
